# Assay results as given in a collection of fitness landscapes (doi:10.1126/science.1257360).
# The list shows a part of the results.
# B1: PhoQ; a variant is named by its letters at X, in order, P23837 (parent)
# chain: MKKLLRLFFPLSLRVRFLLATAAVVLVLSLAYGMVALIGYSVSFDKTTFRLLRGESNLFYTLAKWENNKLHVELPENIDKQSPTMTLIYDENGQLLWAQRDVPWLMKMIQPDWLKSNGFHEIEADVNDTSLLLSGDHSIQQQLQEVREDDDDAEMTHSVAVNVYPATSRMPKLTIVVVDTIPVELKSSYMVWSWFIYVLSANLLLVIPLLWVAAWWSLRPIEALAKEVRELEEHNRELLNPATTRELTSLVRNLNRLLKSERERYDKYRTTLTDLTHSLKTPLXXLQXXLRSLRSEKMSVSDAEPVMLEQISRISQQIGYYLHRASMRGGTLLSRELHPVAPLLDNLTSALNKVYQRKGVNISLDISPEISFVGEQNDFVEVMGNVLDNACKYCLEFVEISARQTDEHLYIVVEDDGPGIPLSKREVIFDRGQRVDTLRPGQGVGLAVAREITEQYEGKIVAGESMLGGARMEVIFGRQHSAPKDE
# Variants of: B1
# Assay: enrichment ratio after two sorts for PhoP signalling (ratio (wild type AVST 3.29)); higher = more functional
# Details: with PhoP (E. coli)
row,Variant,enrichment ratio
1,RTQK,≤ 0.25
2,PYWG,≤ 0.25
3,TWGE,≤ 0.25
4,ERWT,≤ 0.25
5,FWVK,≤ 0.25
6,DVDE,≤ 0.25
7,KAYV,≤ 0.25
8,IATF,≤ 0.25
9,RWSP,≤ 0.25
10,WMHC,≤ 0.25
11,CCTT,≤ 0.25
12,NHFP,≤ 0.25
13,FWNS,≤ 0.25
14,NLWI,≤ 0.25
15,NHHF,≤ 0.25
16,SYDD,≤ 0.25
17,SLLQ,7.5
18,CHAM,≤ 0.25
19,DAAH,≤ 0.25
20,IAKA,≤ 0.25
21,VGSF,≤ 0.25
22,FRND,≤ 0.25
23,DGMF,≤ 0.25
24,VRRM,≤ 0.25

row,Variant,enrichment ratio
1,WYHV,≤ 0.25
2,LFGV,≤ 0.25
3,AYAK,≤ 0.25
4,IIWT,≤ 0.25
5,SVVN,5.76
6,QHAV,≤ 0.25
7,VEIK,≤ 0.25
8,IVFL,≤ 0.25
9,PHHM,≤ 0.25
10,THTP,≤ 0.25
11,ENCS,≤ 0.25
12,ATQG,≤ 0.25
13,RSWM,≤ 0.25
14,FTEF,≤ 0.25
15,MDYC,≤ 0.25
16,TSHD,≤ 0.25
17,DDQH,≤ 0.25
18,WSRH,≤ 0.25
19,GGYS,≤ 0.25
20,GEYY,≤ 0.25
21,WRGT,≤ 0.25
22,NTLM,2.77
23,VVYI,≤ 0.25
24,PWHQ,≤ 0.25

row,Variant,enrichment ratio
1,YLFK,≤ 0.25
2,QSQA,≤ 0.25
3,CFWP,≤ 0.25
4,EHAL,≤ 0.25
5,VANY,≤ 0.25
6,DHIC,≤ 0.25
7,NDYE,≤ 0.25
8,IAWS,≤ 0.25
9,WYYV,≤ 0.25
10,HRQN,≤ 0.25
11,YNNR,≤ 0.25
12,EFFF,≤ 0.25
13,PMNR,≤ 0.25
14,RKMH,≤ 0.25
15,FDFI,≤ 0.25
16,YQIV,≤ 0.25
17,KNCM,≤ 0.25
18,WAHC,≤ 0.25
19,FDYY,≤ 0.25
20,ENWW,≤ 0.25
21,QPMQ,≤ 0.25
22,ASMD,≤ 0.25
23,VVPG,≤ 0.25
24,RCNW,≤ 0.25

row,Variant,enrichment ratio
1,SFYT,≤ 0.25
2,PNVF,≤ 0.25
3,IEVA,≤ 0.25
4,NMGK,≤ 0.25
5,NIHN,≤ 0.25
6,AKCK,0.311
7,WPCH,≤ 0.25
8,YRVF,≤ 0.25
9,MVIM,≤ 0.25
10,TDCG,13.4
11,AWTS,≤ 0.25
12,GRHL,≤ 0.25
13,TQRR,≤ 0.25
14,IISP,≤ 0.25
15,VHKD,≤ 0.25
16,EGCG,≤ 0.25
17,MWPN,≤ 0.25
18,LYLY,≤ 0.25
19,IFWF,≤ 0.25
20,IPYR,≤ 0.25
21,PDIV,≤ 0.25
22,DLRM,≤ 0.25
23,DDAM,≤ 0.25
24,VSGK,≤ 0.25

row,Variant,enrichment ratio
1,ERPN,≤ 0.25
2,WSWA,≤ 0.25
3,TGPV,≤ 0.25
4,VTNN,≤ 0.25
5,NLFE,≤ 0.25
6,TFVN,≤ 0.25
7,YHLT,≤ 0.25
8,ACTM,11.9
9,NFPP,≤ 0.25
10,GCAA,≤ 0.25
11,RNVV,≤ 0.25
12,HHHS,≤ 0.25
13,NRIA,≤ 0.25
14,HNPD,≤ 0.25
15,RIER,≤ 0.25
16,KKRP,≤ 0.25
17,MTCN,≤ 0.25
18,VCST,≤ 0.25
19,RPEH,≤ 0.25
20,TKYD,≤ 0.25
21,KTQW,≤ 0.25
22,QIQS,≤ 0.25
23,IRSL,≤ 0.25
24,MCWQ,≤ 0.25

row,Variant,enrichment ratio
1,QCIF,≤ 0.25
2,LMEG,≤ 0.25
3,EMKK,≤ 0.25
4,AKWI,≤ 0.25
5,QYEF,≤ 0.25
6,KPVE,≤ 0.25
7,EIFT,≤ 0.25
8,EIYQ,≤ 0.25
9,KSQV,≤ 0.25
10,NYYH,≤ 0.25
11,QHLI,≤ 0.25
12,LVHI,≤ 0.25
13,VYLE,≤ 0.25
14,ESDY,≤ 0.25
15,PVAN,≤ 0.25
16,MRYC,≤ 0.25
17,ALST,2.76
18,PTHG,≤ 0.25
19,RCIN,≤ 0.25
20,NGSM,≤ 0.25
21,HSRS,≤ 0.25
22,SQTW,≤ 0.25
23,WLMV,≤ 0.25
24,LNTG,≤ 0.25

row,Variant,enrichment ratio
1,DYYR,≤ 0.25
2,QAVY,≤ 0.25
3,YYKN,≤ 0.25
4,GDRG,≤ 0.25
5,WLWG,≤ 0.25
6,SQGF,0.381
7,SREM,≤ 0.25
8,IVTN,≤ 0.25
9,TITE,≤ 0.25
10,WWPF,≤ 0.25
11,YAWC,≤ 0.25
12,QNGP,≤ 0.25
13,RVTN,≤ 0.25
14,GRAL,≤ 0.25
15,KPFT,≤ 0.25
16,TVCG,10.1
17,EATV,≤ 0.25
18,VAWD,≤ 0.25
19,GHIF,≤ 0.25
20,IVGG,≤ 0.25
21,PSHQ,≤ 0.25
22,KACR,≤ 0.25
23,SYVP,≤ 0.25
24,DGGT,≤ 0.25

row,Variant,enrichment ratio
1,ETNQ,≤ 0.25
2,YFRL,≤ 0.25
3,FMEN,≤ 0.25
4,DKHH,≤ 0.25
5,SYRF,≤ 0.25
6,VRIS,≤ 0.25
7,YIRQ,≤ 0.25
8,RIVK,≤ 0.25
9,RSTC,≤ 0.25
10,FRIP,≤ 0.25
11,VVIV,≤ 0.25
12,IYKS,≤ 0.25
13,HCDG,≤ 0.25
14,TFAY,≤ 0.25
15,MMLE,≤ 0.25
16,TMCF,≤ 0.25
17,NNWN,≤ 0.25
18,HTPA,≤ 0.25
19,MNVT,≤ 0.25
20,TEFY,3.62
21,DYMW,≤ 0.25
22,DVND,≤ 0.25
23,LAAE,≤ 0.25
24,MQFD,14.7

row,Variant,enrichment ratio
1,KSQE,≤ 0.25
2,QNHP,≤ 0.25
3,NGDV,≤ 0.25
4,DMRI,≤ 0.25
5,RINI,≤ 0.25
6,ICDG,≤ 0.25
7,FETE,≤ 0.25
8,IPLY,≤ 0.25
9,VFGH,≤ 0.25
10,ALTL,15.2
11,AAIG,≤ 0.25
12,ELYR,≤ 0.25
13,GQSS,≤ 0.25
14,DVCD,≤ 0.25
15,NLWH,≤ 0.25
16,KYGR,≤ 0.25
17,MKPS,≤ 0.25
18,AWYT,≤ 0.25
19,WWWS,≤ 0.25
20,EKAF,≤ 0.25
21,IQEP,≤ 0.25
22,ECLH,≤ 0.25
23,LLSS,≤ 0.25
24,RRHY,≤ 0.25

row,Variant,enrichment ratio
1,KPDF,≤ 0.25
2,SVAT,4.63
3,GTKM,≤ 0.25
4,QHRT,≤ 0.25
5,QTWE,6.63
6,DFDK,≤ 0.25
7,VLMS,≤ 0.25
8,THAG,3.58
9,LEPN,≤ 0.25
10,QWLR,≤ 0.25
11,PYYE,≤ 0.25
12,PQPE,≤ 0.25
13,DCCC,≤ 0.25
14,AQWG,≤ 0.25
15,LKAH,1.18
16,YAFL,≤ 0.25
17,NMCM,≤ 0.25
18,YEKC,≤ 0.25
19,TVKP,≤ 0.25
20,TADH,4.03
21,HFYV,≤ 0.25
22,IDYK,≤ 0.25
23,APRL,≤ 0.25
24,LRFC,≤ 0.25

row,Variant,enrichment ratio
1,SHKD,≤ 0.25
2,MRTV,≤ 0.25
3,SMPA,≤ 0.25
4,FHPR,≤ 0.25
5,NECR,≤ 0.25
6,DIMI,≤ 0.25
7,ETMQ,≤ 0.25
8,TTVY,≤ 0.25
9,PMFR,≤ 0.25
10,PSIR,≤ 0.25
11,TVAY,0.466
12,ARNW,≤ 0.25
13,HKHT,≤ 0.25
14,YGHK,≤ 0.25
15,VMRF,0.322
16,NYIP,≤ 0.25
17,TGTY,6.78
18,TRIS,≤ 0.25
19,HEPE,≤ 0.25
20,RWSF,≤ 0.25
21,IWAI,≤ 0.25
22,REQP,≤ 0.25
23,RMMA,4.49
24,YLMH,≤ 0.25

row,Variant,enrichment ratio
1,YKMV,≤ 0.25
2,WQSV,≤ 0.25
3,LPLV,≤ 0.25
4,KVTP,≤ 0.25
5,STAP,≤ 0.25
6,AGMQ,0.272
7,WNFW,≤ 0.25
8,ERLV,≤ 0.25
9,IPRC,≤ 0.25
10,SRFT,0.273
11,VASS,≤ 0.25
12,RHQN,≤ 0.25
13,LMIT,≤ 0.25
14,FVVD,≤ 0.25
15,IRKY,≤ 0.25
16,RKFY,≤ 0.25
17,RTNV,≤ 0.25
18,MMPY,≤ 0.25
19,KVRQ,≤ 0.25
20,IENV,≤ 0.25
21,HYGC,≤ 0.25
22,WDYC,≤ 0.25
23,HGWR,≤ 0.25
24,IAGH,≤ 0.25

row,Variant,enrichment ratio
1,APFQ,≤ 0.25
2,PMFP,≤ 0.25
3,EILP,≤ 0.25
4,NHDM,≤ 0.25
5,SKPN,≤ 0.25
6,WGMG,≤ 0.25
7,RYYL,≤ 0.25
8,WSVM,≤ 0.25
9,RHCD,≤ 0.25
10,QNPG,≤ 0.25
11,SPTQ,≤ 0.25
12,VTRG,≤ 0.25
13,MMMH,≤ 0.25
14,SQSV,11.9
15,SSEI,≤ 0.25
16,WPMM,≤ 0.25
17,AMML,7.98
18,DFMF,≤ 0.25
